Measurements published in the supplement of paper PMC7125110.
± gives the standard error. Variants at the background level are over-represented here.

B1: glmS ribozyme (parent)
chain: AUAAAAGCGCCAGAACUACAGAAAUGUAGUUGACGAGGAGGAGGUUUAUCGAAUUUUCGGCGGAUGCCUCCAAA

Legend:
Conditions in all cases: with glucosamine-6-phosphate
glucosamine-6-phosphate [1] = variants of: B1; assay: self-cleavage kobs at 640 uM GlcN6P; higher = faster cleavage; RNA array
In short: (§1)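 On sequenced MiSeq chips, barcoded ribozyme variants were made in situ by E. coli RNA polymerase and followed at 37 °C through a hybridised Cy3 probe. Glucosamine-6-phosphate was flowed in at 40 μM to 10 mM in HEPES/KCl/Mg(OAc)2 buffer. Exponential fits to normalised per-tile medians gave kobs, and weighted Michaelis–Menten fits gave kcat and KM.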

glucosamine-6-phosphate [2] = variants of: B1; assay: self-cleavage kobs at 2500 uM GlcN6P; higher = faster cleavage; RNA array
In short: as §1

glucosamine-6-phosphate [3] = variants of: B1; assay: self-cleavage kobs at 160 uM GlcN6P; higher = faster cleavage; RNA array
In short: as §1

glucosamine-6-phosphate [4] = variants of: B1; assay: self-cleavage kobs at 10000 uM GlcN6P; higher = faster cleavage; RNA array
In short: as §1

Variant	self-cleavage kobs at 640 uM GlcN6P (glucosamine-6-phosphate [1])	self-cleavage kobs at 2500 uM GlcN6P (glucosamine-6-phosphate [2])	self-cleavage kobs at 160 uM GlcN6P (glucosamine-6-phosphate [3])	self-cleavage kobs at 10000 uM GlcN6P (glucosamine-6-phosphate [4])
U46C C58U G59A	< 1e-05 s⁻¹			
G44A U49A U65A	< 1e-05 s⁻¹			
U49G G60U C68G	< 1e-05 s⁻¹	< 1e-05 s⁻¹		
G43A A48G A53U G62C	< 1e-05 s⁻¹			
G44U G60A	< 1e-05 s⁻¹	< 1e-05 s⁻¹	< 1e-05 s⁻¹	< 1e-05 s⁻¹
A53G G63A	< 1e-05 s⁻¹			< 1e-05 s⁻¹
A42U C50G U55G	< 1e-05 s⁻¹	< 1e-05 s⁻¹		
U46G A52C C70G	< 1e-05 s⁻¹		< 1e-05 s⁻¹	< 1e-05 s⁻¹
A52G U57C	9.94e-05 ± 1e-05 s⁻¹	0.000227 ± 3.1e-05 s⁻¹	2.83e-05 ± 1.3e-05 s⁻¹	0.000314 ± 4.4e-05 s⁻¹
U54C G60C C71G	< 1e-05 s⁻¹	< 1e-05 s⁻¹		
U57G C67G	0.000478 ± 0.00018 s⁻¹			
G60C C61U	< 1e-05 s⁻¹	< 1e-05 s⁻¹	< 1e-05 s⁻¹	< 1e-05 s⁻¹
U57C G59U	< 1e-05 s⁻¹	< 1e-05 s⁻¹		
A48U G51U U55C	< 1e-05 s⁻¹			
C50U C70G	8.51e-05 ± 1.6e-05 s⁻¹		0.000293 ± 0.00013 s⁻¹	
G51C A53U G59C	< 1e-05 s⁻¹	< 1e-05 s⁻¹		
U47C G62U	< 1e-05 s⁻¹	< 1e-05 s⁻¹	< 1e-05 s⁻¹	< 1e-05 s⁻¹
A48G A53U G62C	< 1e-05 s⁻¹		< 1e-05 s⁻¹	< 1e-05 s⁻¹
G44C U47G A53C A64U	< 1e-05 s⁻¹	< 1e-05 s⁻¹	< 1e-05 s⁻¹	
U45C U54C G60C	< 1e-05 s⁻¹	< 1e-05 s⁻¹		< 1e-05 s⁻¹
G43C G44U G60U	< 1e-05 s⁻¹			
U45G U46A U49A	< 1e-05 s⁻¹	< 1e-05 s⁻¹		
A52U A64G G66U	< 1e-05 s⁻¹		< 1e-05 s⁻¹	
G51C U57A	< 1e-05 s⁻¹			< 1e-05 s⁻¹
G51C U57C	< 1e-05 s⁻¹	< 1e-05 s⁻¹	< 1e-05 s⁻¹	< 1e-05 s⁻¹
C50U G59U G62C	< 1e-05 s⁻¹			

Variant	self-cleavage kobs at 640 uM GlcN6P (glucosamine-6-phosphate [1])	self-cleavage kobs at 2500 uM GlcN6P (glucosamine-6-phosphate [2])	self-cleavage kobs at 160 uM GlcN6P (glucosamine-6-phosphate [3])	self-cleavage kobs at 10000 uM GlcN6P (glucosamine-6-phosphate [4])
U57C	5.24e-05 ± 1.5e-06 s⁻¹	0.000136 ± 3.2e-06 s⁻¹	1.34e-05 ± 2.2e-06 s⁻¹	0.000236 ± 4.4e-06 s⁻¹
U49A G51C U55A	< 1e-05 s⁻¹	< 1e-05 s⁻¹		
C50U U54A U56A	< 1e-05 s⁻¹			
G51U G62U C70U	< 1e-05 s⁻¹			
A42G G43C G62C C68G	< 1e-05 s⁻¹	< 1e-05 s⁻¹	< 1e-05 s⁻¹	
A42U A64C	< 1e-05 s⁻¹			
U46C G60C C68G	< 1e-05 s⁻¹			
U49C U69C C70U	< 1e-05 s⁻¹			
A53G A64U U69G	0.000772 ± 0.00022 s⁻¹	0.000517 ± 0.00019 s⁻¹	0.000191 ± 6.9e-05 s⁻¹	
G44U G66A C70G	< 1e-05 s⁻¹	< 1e-05 s⁻¹	< 1e-05 s⁻¹	
G43A C50A U55C C70A	< 1e-05 s⁻¹	< 1e-05 s⁻¹		< 1e-05 s⁻¹
U45A G59C	< 1e-05 s⁻¹			
G59U G62C	< 1e-05 s⁻¹	< 1e-05 s⁻¹	< 1e-05 s⁻¹	< 1e-05 s⁻¹
A53C U54C G60U	< 1e-05 s⁻¹	< 1e-05 s⁻¹		
U54C G62U A64U	< 1e-05 s⁻¹		< 1e-05 s⁻¹	
U46G A53G C70A	0.000507 ± 0.0001 s⁻¹			
U45G A52C U55C C61U	< 1e-05 s⁻¹	< 1e-05 s⁻¹		
U45A G63A G66U	< 1e-05 s⁻¹	< 1e-05 s⁻¹	< 1e-05 s⁻¹	
U49A U56A C58U G60A C67U	< 1e-05 s⁻¹			
A52C C58U	< 1e-05 s⁻¹		< 1e-05 s⁻¹	< 1e-05 s⁻¹
G44U U56G	3.67e-05 ± 1.1e-05 s⁻¹	6.96e-05 ± 1.9e-05 s⁻¹		0.00015 ± 3.7e-05 s⁻¹
G44A A48U U56G	< 1e-05 s⁻¹	< 1e-05 s⁻¹		
U47A A52U	7.72e-05 ± 1.5e-05 s⁻¹	0.000158 ± 3e-05 s⁻¹		0.000299 ± 4.3e-05 s⁻¹
A48C C70U	8.59e-05 ± 1.5e-05 s⁻¹	0.000254 ± 3.9e-05 s⁻¹		0.000401 ± 7.4e-05 s⁻¹
G44U A48U A64G C67G	0.000188 ± 7.9e-05 s⁻¹			
C50A U57C	< 1e-05 s⁻¹			

Variant	self-cleavage kobs at 640 uM GlcN6P (glucosamine-6-phosphate [1])	self-cleavage kobs at 2500 uM GlcN6P (glucosamine-6-phosphate [2])	self-cleavage kobs at 160 uM GlcN6P (glucosamine-6-phosphate [3])	self-cleavage kobs at 10000 uM GlcN6P (glucosamine-6-phosphate [4])
U49G G63A G66U	< 1e-05 s⁻¹	< 1e-05 s⁻¹		
C50G U57A A64U	0.000127 ± 5.8e-05 s⁻¹			
A52G U56G	0.000309 ± 5.9e-05 s⁻¹	0.000536 ± 0.00011 s⁻¹		0.0014 ± 0.00025 s⁻¹
G43U A52C G66C C68G	< 1e-05 s⁻¹	< 1e-05 s⁻¹		
U46A A52G G59U G66A C70U	< 1e-05 s⁻¹	< 1e-05 s⁻¹	< 1e-05 s⁻¹	
U55A U65C	0.0002 ± 2.9e-05 s⁻¹	0.000471 ± 6.1e-05 s⁻¹	7.83e-05 ± 1.4e-05 s⁻¹	
A53U C61G	< 1e-05 s⁻¹	< 1e-05 s⁻¹		< 1e-05 s⁻¹
U57G C71U	3.26e-05 ± 1.2e-05 s⁻¹	1.65e-05 ± 8e-06 s⁻¹		4.47e-05 ± 6.6e-06 s⁻¹
G43A C70A	< 1e-05 s⁻¹		< 1e-05 s⁻¹	< 1e-05 s⁻¹
A53G C58U U65G	< 1e-05 s⁻¹			
U47G A52U C68G	0.000113 ± 4.9e-05 s⁻¹			
A53C G66C	9.27e-05 ± 1.9e-05 s⁻¹	0.00034 ± 0.00011 s⁻¹		0.000368 ± 6.5e-05 s⁻¹
U47G C70U C71G	0.000118 ± 2.3e-05 s⁻¹			
C58A G66U C71A	< 1e-05 s⁻¹	< 1e-05 s⁻¹		
U46A U49C G62U U65A	< 1e-05 s⁻¹	< 1e-05 s⁻¹		
U47A G63A	< 1e-05 s⁻¹			
G44C G63A	< 1e-05 s⁻¹	< 1e-05 s⁻¹	< 1e-05 s⁻¹	
G43A U55C	< 1e-05 s⁻¹			
U45G U69C	0.0407 ± 0.018 s⁻¹			
A48C G66C C71G	< 1e-05 s⁻¹		< 1e-05 s⁻¹	
U45C A48U G59U C67U	< 1e-05 s⁻¹			
G51A G59A	< 1e-05 s⁻¹			< 1e-05 s⁻¹
G51C C58A	< 1e-05 s⁻¹	< 1e-05 s⁻¹	< 1e-05 s⁻¹	
G43U A52C U65G	< 1e-05 s⁻¹	< 1e-05 s⁻¹	< 1e-05 s⁻¹	
G43C U65G	< 1e-05 s⁻¹			
G44U U45A U46G G51C	< 1e-05 s⁻¹			

Variant	self-cleavage kobs at 640 uM GlcN6P (glucosamine-6-phosphate [1])	self-cleavage kobs at 2500 uM GlcN6P (glucosamine-6-phosphate [2])	self-cleavage kobs at 160 uM GlcN6P (glucosamine-6-phosphate [3])	self-cleavage kobs at 10000 uM GlcN6P (glucosamine-6-phosphate [4])
G59C C61U	< 1e-05 s⁻¹		< 1e-05 s⁻¹	
U57G A64U	< 1e-05 s⁻¹	< 1e-05 s⁻¹	< 1e-05 s⁻¹	< 1e-05 s⁻¹
U45A G60U	< 1e-05 s⁻¹			
G44C U45A A52U	< 1e-05 s⁻¹	< 1e-05 s⁻¹		
C50U A52U U54C	< 1e-05 s⁻¹	< 1e-05 s⁻¹	< 1e-05 s⁻¹	
G43U G60U	< 1e-05 s⁻¹	< 1e-05 s⁻¹	< 1e-05 s⁻¹	< 1e-05 s⁻¹
A48U U57A G59U	< 1e-05 s⁻¹	< 1e-05 s⁻¹	< 1e-05 s⁻¹	
G43U U45A C50G A52U U56A C68G U69A	< 1e-05 s⁻¹	< 1e-05 s⁻¹		< 1e-05 s⁻¹
U54A G63U	< 1e-05 s⁻¹			< 1e-05 s⁻¹
U49G G60C	< 1e-05 s⁻¹	< 1e-05 s⁻¹	< 1e-05 s⁻¹	
U49G G60A	< 1e-05 s⁻¹	< 1e-05 s⁻¹	< 1e-05 s⁻¹	< 1e-05 s⁻¹
U45C U46G	0.000322 ± 8.8e-05 s⁻¹	0.000911 ± 0.00015 s⁻¹	7.78e-05 ± 1.5e-05 s⁻¹	0.000685 ± 0.00025 s⁻¹
U47A U56C	0.000703 ± 8.8e-05 s⁻¹	0.00144 ± 0.00021 s⁻¹	0.000111 ± 2.1e-05 s⁻¹	0.00257 ± 0.00031 s⁻¹
A42U U55A G60A C71G	< 1e-05 s⁻¹	< 1e-05 s⁻¹	< 1e-05 s⁻¹	
U47G U54C	0.0026 ± 0.00053 s⁻¹	0.00468 ± 0.00094 s⁻¹	0.000851 ± 0.00032 s⁻¹	0.0139 ± 0.0032 s⁻¹
A53U G62U	< 1e-05 s⁻¹	< 1e-05 s⁻¹		< 1e-05 s⁻¹
U49G C61U C71A	< 1e-05 s⁻¹	< 1e-05 s⁻¹		< 1e-05 s⁻¹
A53U C68A	6.67e-05 ± 8.3e-06 s⁻¹	6.54e-05 ± 9.8e-06 s⁻¹	3.62e-05 ± 1e-05 s⁻¹	
G44C	4.33e-05 ± 1.8e-06 s⁻¹	0.000127 ± 2.9e-06 s⁻¹	< 1e-05 s⁻¹	0.000159 ± 3.5e-06 s⁻¹
G44U	0.000101 ± 2.1e-06 s⁻¹	0.000282 ± 6.2e-06 s⁻¹	2.34e-05 ± 1.7e-06 s⁻¹	0.000335 ± 6.6e-06 s⁻¹
A48C U65C	< 1e-05 s⁻¹		< 1e-05 s⁻¹	
A42U U55C U57C	< 1e-05 s⁻¹		< 1e-05 s⁻¹	
C58A U69C	4.91e-05 ± 1e-05 s⁻¹	9.46e-05 ± 2.2e-05 s⁻¹	3.58e-05 ± 1.2e-05 s⁻¹	0.000107 ± 1.5e-05 s⁻¹
G51C G59C G60C G66A	< 1e-05 s⁻¹	< 1e-05 s⁻¹	< 1e-05 s⁻¹	
U46G C58A G59U U65A	< 1e-05 s⁻¹	< 1e-05 s⁻¹		
U45G C61U C70G	< 1e-05 s⁻¹			
